# ± gives the standard deviation of the averaged measurements. This is one part of the list.
# Test system: PfAP2-I AP2 domain 3 (GST-tagged)
# Assay: gcPBM binding intensity (ln(normalized median fluorescence intensity)); higher = stronger DNA binding
# Method in brief: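 Binding intensity is the highest Masliner-normalised natural-log median intensity over replicate spots in either probe orientation. To obtain it, GST-tagged P. falciparum DNA-binding domains made in E. coli were incubated for 1 h on an Agilent 4 × 180k array of primer-extended double-stranded 36-bp intergenic genomic probes plus negative controls. Detection used Alexa488 anti-GST antibody with scanning at 488 nm.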
row,Sequence,gcPBM binding intensity (ln)
1,ATTTATGTTATTGTATGTACACAATATAATGTTATT [XGTACX_site5657],7.82 ± 0.39
2,ATTCTACACGCACATACACACATATAAATATAAATA [CACACA_site7582],8.7 ± 0.24
3,ACACAAAAATAGTTTTTTATATTGTTAACCTTATAT [XGTACX_negctrl_site123],7.75 ± 0.66
4,ATAATATATATGAAATGTACATAAATTTAATGCGAC [XGTACX_site5394],8.38 ± 0.35
5,ATATTTTACATATTTGCACACATATATTTAAATACA [CACACA_site4628],9.73 ± 0.28
6,AAAAAAAAAAAATGTGCACACGCGTACAGACAAAAA [CACACA_site2005],9.53 ± 0.13
7,TAAAAAGTACATTATTCATGGCCTATTACATTTTTT [GTGCAC_negctrl_site282],7.88 ± 0.4
8,ATGTGCACATGTAGAAGTACTTTTTCTTAAAATACT [XGTACX_site8341],9.045 ± 0.049
9,TATGTTTTATATAAGATGCACTTTTGTTATGCTTCA,8.85 ± 0.3
10,TAAAATAGAAATATATGTACATATATATATGTATAT [XGTACX_site4134],7.74 ± 0.37
11,ATTTATATTTTTTAATGTACATTTATATGTATACAA [XGTACX_site4555],7.87 ± 0.57
12,CGATATTCTAAGGATAGTACATAATAAAATAGAGTA [XGTACX_site4224],7.68 ± 0.57
13,AAAAAACGCACTCGTACACACATATTTTCTTTCTAA [CACACA_site3089],9.31 ± 0.12
14,AATATTTACCAGAAAATAAAAATATGTATATATATA [CACACA_negctrl_site351],8.81 ± 0.28
15,TTAATTACACAAAAAAGTACTTGATATTGTTTATTA [XGTACX_site3449],7.59 ± 0.38
16,ATATAATCAACTGCAAAGGTTTAAAAGGAAAAAATA [CACACA_negctrl_site989],7.68 ± 0.78
17,TTTTTATTCAACAAAAATATCAAACATAATTATAAA [CACACA_negctrl_site616],7.64 ± 0.49
18,AATATTTATATTTACACACACATAATACATATATGT [CACACA_site33],7.87 ± 0.59
19,ATATACAACTAAAGAACACACATCATTGTTCATTGG [CACACA_site3681],7.58 ± 0.61
20,ATTTTTATGTCTTTCTATAAATCGAAAATATACATA [CACACA_negctrl_site477],7.7 ± 0.52
21,TTCCTTTAACCCTGCACACATACATACATTTATATG [CACACA_site3953],8.91 ± 0.63
22,CGTCCAAAATATCCTTCACACACGAACAGTTTCATT [CACACA_site2729],7.99 ± 0.52

row,Sequence,gcPBM binding intensity (ln)
1,CTATAATATTATAACAGTACATAATATTATATATAT [XGTACX_site1414],8.21 ± 0.56
2,TTTAAATAAAAATGGAGTACTCTAAAAAAAAAAAAA [XGTACX_site1233],8.21 ± 0.49
3,GCATTGATCAAACATACACACATGGTTAATAAAAAT [CACACA_site2085],7.96 ± 0.36
4,TTTATATAATATTCTACACACCAACAACAAACATAT [CACACA_site4478],8.41 ± 0.25
5,ATATATATATATAATACACACATAAATGAATATATA [CACACA_site316],9.11 ± 0.11
6,GTGATTTCTATGAATTGTACTTAAATATAGTTATAT [XGTACX_site231],7.78 ± 0.42
7,TTATAGACATATATAGGTACACATATTTTCAATCCC [XGTACX_site8230],7.83 ± 0.48
8,ATTTATTAATCATATACACACATATATTTGTATTTA [CACACA_site1336],7.67 ± 0.49
9,TATTTTTTTAAAATAGGTACACAATCAAACATTTAT [XGTACX_site8785],7.95 ± 0.42
10,ACCTCATAATATTTAACACACAAAATTATCTGTATG [CACACA_site5015],8.02 ± 0.56
11,CTTTTTTTTTTGTATTGTACTTTATTTTTACATCGT [XGTACX_site2918],8.1 ± 0.45
12,ATTTTTAATTTTTTCACACATATATTTAAAATAAAA [CACACA_site4799],7.94 ± 0.49
13,ATTCTAATTTTATGAAACGATTATTTTGAATTCATT [XGTACX_negctrl_site578],7.68 ± 0.51
14,ATAAAAAAAAATATATGTACATATATAAATTGATAT [XGTACX_site7409],7.92 ± 0.76
15,GATTACCTTTTTTTTTTTTTTTTTTTTTTTTTTTTC [CACACA_negctrl_site147],7.47 ± 0.69
16,TGAAATGAAAGAACAGCACACATATATATTATATAT [CACACA_site8613],7.86 ± 0.61
17,TATATTTTTTAAAAAAGTACAAAGTAATTATTGATT [XGTACX_site2420],7.86 ± 0.42
18,GTAGTACATTCTAGAATACACACCTATATATATATA [CACACA_site522],9.38 ± 0.43
19,ATATGAAAAACTTCATGTACTTATTATAAAATATAA [XGTACX_site2725],7.58 ± 0.29
20,TTCTTAAAAAATCAAACACACATATATAAATACATA [CACACA_site5301],7.68 ± 0.12
21,AAAAAATATAAAAAAACACACAAAAAAAAAAAAAAA [CACACA_site1382],7.96 ± 1
22,CCCCATTTATCTTAAGCATGCCATGGTTTTAGATAT [TGCATGCA_site24],8.36 ± 0.47

row,Sequence,gcPBM binding intensity (ln)
1,AAAGACGTTTATAAATGTACATACACTTTAAAAGTT [XGTACX_site8753],7.67 ± 0.66
2,ATAAAAAAAAAAAATACACACATATATATATATATA [CACACA_site1709],9.38 ± 0.37
3,CATATATACAGTAACACACACAAAAAAATATGAATA [CACACA_site3996],7.83 ± 0.57
4,TTATTTATTTATTATAGTTCACTTGAAAATACAAGA [CACACA_negctrl_site1480],7.69 ± 0.57
5,AATAGTGTCATAAAAACTATTATCATATAATGTGAA [CACACA_negctrl_site1578],7.63 ± 0.5
6,TAATTTATAACACGCGCACACATATATATATAGTAA [CACACA_site121],8.09 ± 0.41
7,TTTCTTTTTAACTCTTACATAATAGGTGGTAGAAGG [TGCATGCA_negctrl_site176],8.07 ± 0.3
8,TTGTTGTGTATTATCGTGCACATAATATAAAAGATT,11.11 ± 0.078
9,CAGAAATATTCTTATACACACTGTTCTTATATTCCT [CACACA_site4318],7.79 ± 0.64
10,AATATATATATAAATAGTACATATAAAGAGAATTTT [XGTACX_site3168],7.97 ± 0.4
11,TTTATCTTTTTTTGTTGTACAGATGTTTATATTTTA [XGTACX_site4065],7.91 ± 0.62
12,ATTAAAACAAAATGTACACACATATAATTTAATGAC [CACACA_site878],7.89 ± 0.39
13,AATAACATTATTTTATGTACACATGAAAAATAAAAT [XGTACX_site4657],7.85 ± 0.34
14,TGATATTTCATCATAGTGCAATATGGCATATAAATA [GTGCAC_site9433],10.8 ± 0.39
15,TGTAATAAACTACTTTTTTTTTTTTTTTTTTTTTTT [CACACA_negctrl_site1021],9.67 ± 0.13
16,AATATCAAAATAACATGTACATGTTATATTTTATTT [XGTACX_site5891],7.54 ± 0.49
17,GTATATATCTCAGAGCATAATAGTATAATTCGGTCA [CACACA_negctrl_site876],7.63 ± 0.48
18,AATTATTTTAGAAACACACAAATTAGAAAAAACATA [CACACA_site7673],7.71 ± 0.4
19,TAACACCAAACTAAATGTACACACATACATAAATAT [XGTACX_site2201],7.79 ± 0.5
20,TCTTATATGATATTTATTTATTTATTTATTTATTCA [GTGCAC_negctrl_site686],7.42 ± 0.56
21,TTTATTTTTTGTGGCACACAGAAGAAACAAGAACAA [CACACA_site1696],9.11 ± 0.099
22,AATGAATAATTATTTTGTACATAATATTATATTTAT [XGTACX_site5350],7.63 ± 0.5

row,Sequence,gcPBM binding intensity (ln)
1,TAAATGTGAACAATAGAAGTAATAAGAAGAATAAAA [CACACA_negctrl_site1080],7.83 ± 0.7
2,AATAGTAATTTGAATACACACAATAATATATTTATA [CACACA_site7055],7.54 ± 0.5
3,TATTGTTTTTTTTACTGTACACAAGTAAATGAAAAA [XGTACX_site790],8.15 ± 0.28
4,AAAAAATTCAAAAGGTGTACAACATTATATTATTCC [XGTACX_site5118],7.91 ± 0.49
5,TCTGTATATTATTCAAGTACACAATATAAATATAAA [XGTACX_site7241],7.72 ± 0.34
6,GATAACTTTTTTCTCACACACAAATATTTTAATCAT [CACACA_site7685],8.03 ± 0.51
7,AAAAATAAAAAAATAAATACGTATACATATATAATA [TGCATGCA_negctrl_site551],7.53 ± 0.55
8,GTATATAATTAAAGTTGTACCCTTAAAAAAGGGAAA [XGTACX_site7278],7.85 ± 0.16
9,TATAATTATATGTATACACACACATACATTTACATA [CACACA_site9061],7.95 ± 0.52
10,AAAATGAAAATGAAAATGAAAATGGGAAAATGTCAA [TGCATGCA_negctrl_site488],7.74 ± 0.85
11,CATATATATCGTAATGCACACATGTAATTTCATAAT [CACACA_site811],11 ± 0.92
12,TTATATATAAGTTTATTCATTTTTTTTTTTTTTTTT [XGTACX_negctrl_site573],8.34 ± 0.19
13,TAAATAAAAAAGAATACACACAGCATGCATAAATAT [CACACA_site237],8.04 ± 0.94
14,ATAAGCTCATGCAGGTGTACACAAAAAGAAAAAAAA [XGTACX_site2433],8.55 ± 0.45
15,ATAATGAAAAGGAACATACACACCCCATATAAATAT [CACACA_site3442],8.4 ± 0.83
16,ACTTATACAAAATGTGCATGTTATATTTACAATAAT [TGCATGCA_site108],8.32 ± 0.58
17,AAATTAAATGTAAGCACACATAAATTATACTCATAT [CACACA_site5782],7.84 ± 0.5
18,GGAATAGTAATATATACACACAAATACATATATATA [CACACA_site67],8.38 ± 0.67
19,TTTATTTTTTAATGATGTACTATTTATCCAGAAAAG [XGTACX_site7750],7.89 ± 0.085
20,TTTTCCAATTTAAAAGCATGCATCTGTTTTTTTTTT [TGCATGCA_site482],7.55 ± 0.97
21,AGAGGTAGAGAGAAAACATGCATAATGATTTTCATA [TGCATGCA_site958],7.74 ± 0.49
22,TAGAGGTATAAAATATGTACTTATAAAAACATGAAT [XGTACX_site8916],7.88 ± 0.48

# — the supplement of paper PMC11417369
